About 14,000 (4.5%) of roughly 310,000 compounds showed an effect of 50% or more. The effect is printed as a negative number. The list shows a part of the results.
target: human ether-à-go-go-related gene (hERG) potassium channel (human, UniProt Q12809); experiment: primary screen, population patch clamp on CHO cells stably expressing hERG
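Further: peak tail current of the secondary pulse compared with the same well before compound.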

Chain of human ether-à-go-go-related gene (hERG) potassium channel (Q12809 whole entry, looked up): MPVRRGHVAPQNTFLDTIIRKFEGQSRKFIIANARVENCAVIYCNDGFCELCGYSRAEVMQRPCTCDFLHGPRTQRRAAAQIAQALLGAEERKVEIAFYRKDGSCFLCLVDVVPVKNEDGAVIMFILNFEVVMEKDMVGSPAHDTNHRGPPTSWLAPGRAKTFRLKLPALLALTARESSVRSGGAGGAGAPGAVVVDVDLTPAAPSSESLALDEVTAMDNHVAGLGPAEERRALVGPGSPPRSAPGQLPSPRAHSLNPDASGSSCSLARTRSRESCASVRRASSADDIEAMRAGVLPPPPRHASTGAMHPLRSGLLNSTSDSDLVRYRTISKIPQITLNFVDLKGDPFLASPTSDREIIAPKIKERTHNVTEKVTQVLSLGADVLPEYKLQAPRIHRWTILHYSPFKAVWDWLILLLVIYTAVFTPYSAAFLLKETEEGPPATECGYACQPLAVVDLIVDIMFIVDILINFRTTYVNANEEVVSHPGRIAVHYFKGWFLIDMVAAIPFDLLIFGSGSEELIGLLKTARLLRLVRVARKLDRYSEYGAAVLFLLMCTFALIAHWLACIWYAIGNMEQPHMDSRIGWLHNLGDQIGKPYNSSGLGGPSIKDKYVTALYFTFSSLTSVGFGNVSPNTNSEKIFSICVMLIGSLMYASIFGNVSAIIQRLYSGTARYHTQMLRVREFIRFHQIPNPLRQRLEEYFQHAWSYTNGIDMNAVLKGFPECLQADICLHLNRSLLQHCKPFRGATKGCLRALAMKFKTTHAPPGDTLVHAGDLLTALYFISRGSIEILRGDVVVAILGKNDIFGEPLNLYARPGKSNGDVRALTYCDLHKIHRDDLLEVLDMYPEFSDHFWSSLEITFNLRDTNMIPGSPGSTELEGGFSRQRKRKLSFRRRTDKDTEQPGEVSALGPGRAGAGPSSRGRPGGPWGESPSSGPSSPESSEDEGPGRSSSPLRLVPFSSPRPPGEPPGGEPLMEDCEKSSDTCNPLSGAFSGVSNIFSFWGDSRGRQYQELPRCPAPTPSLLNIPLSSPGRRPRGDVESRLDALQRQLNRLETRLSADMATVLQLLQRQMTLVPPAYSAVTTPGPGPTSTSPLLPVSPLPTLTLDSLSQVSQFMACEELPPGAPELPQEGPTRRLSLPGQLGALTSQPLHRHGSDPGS

SMILES | hERG current change (%, negative = inhibition) at 10uM [%]
Cn1c(SCC(=O)N=Nc2c(O)[nH]c3ccccc23)nc2ccccc21 | 6.24
COc1ccccc1CNC(=O)C1CCCN(S(C)(=O)=O)C1 (centres unmarked) | 9.4
O=C(O)c1ccc2c(=O)[nH]c(CN3CCOCC3)nc2c1 | 19.8
O=C(Cc1cccs1)Nc1nnc(-c2ccccc2)s1 | 11.4
O=C(O)CCn1ccnc1-c1ccccc1 | 6.21
COc1ccc(/C=N/N(c2ccccc2)c2ccccc2)cc1O | 7.16
Cc1c(Cl)cccc1NC(=S)N=Nc1c(O)n(CN2CCOCC2)c2ccccc12 | 5.83
COc1ccc(S(=O)(=O)NC(CC(C)C)C(=O)NC(C)c2cccs2)cc1 (centres unmarked) | -7.74
C=C(c1ccccc1C)[n+]1ccccc1 | 26.3
COc1ccccc1N(CC(=O)N/N=C(\C)c1cccc(Br)c1)S(C)(=O)=O | -1.22
NNc1cc([N+](=O)[O-])cc2c1C(=O)N(Cc1ccccc1)S2=O (centres unmarked) | 20.3
Cn1nc(C(C)(C)C)c([N+](=O)[O-])c1C(=O)Nc1cccc2ccccc12 | -3.22
COc1ccc(OC)c(NC(=O)Nc2nnc(N3CCCCC3C)s2)c1 (centres unmarked) | 7.74
O=C(C1CCN(Cc2ccccc2)CC1)N1CCCC1 | 8.93
CCOC(=O)C1=C(COC(=O)CCNS(=O)(=O)c2ccc(NC(C)=O)cc2)NC(=O)NC1C (centres unmarked) | 16.7
O=C(N/N=C/C=C\c1ccccc1[N+](=O)[O-])c1ccco1 | -10.4
CC(Cc1ccccc1)NC(=O)CSc1nc2nc3c(cc2c(=O)n1-c1ccccc1)COC(C)(C)C3 (centres unmarked) | -14
COc1ccc2c(C(=O)c3ccc(C)cc3)n(CCCC(N)=O)[n+]([O-])c2c1 | -44.2
CNc1oc(-c2ccccc2Cl)nc1P(=O)(c1ccccc1)c1ccccc1 | -3.35
CC(C)(C)Cc1nnc(NS(=O)(=O)c2ccccc2)s1 | 33.4
COCC(=O)N1CCC(Oc2ccc(C(=O)N[C@H](C(=O)OC)C(C)C)cc2)CC1 | 24.7
O=C(Nc1ccc(F)c([N+](=O)[O-])c1)c1ccc2c(c1)OCCO2 | 25.6

SMILES | hERG current change (%, negative = inhibition) at 10uM [%]
O=C1CCC(C(=O)OCC(=O)c2c[nH]c3ccccc23)=NN1 | 1.19
COc1ccc(C(=O)COC(=O)CCCN=C2NS(=O)(=O)c3ccccc32)c(OC)c1 | -10.5
CC(=O)NNS(=O)(=O)c1scc(S(=O)(=O)c2ccc(Cl)cc2)c1C | 12.3
CCOc1ccc(NC(=O)N2CCC(n3nnc4ccccc43)CC2)cc1 | -15.4
CCOC(=O)C1=C(O)/C(=C/c2ccc(OCC(=O)O)c(OCC)c2)SC1=Nc1ccc(OC)cc1 | 15.7
Cc1ccccc1Nc1nc(N2CCOCC2)nc(N2CCOCC2)n1.Cl | 14
COc1ccc(-c2nc(NC(=O)C3CC(=O)N(Cc4ccco4)C3)sc2C)cc1 (centres unmarked) | -34.3
COc1ccc(S(=O)(=O)N(CC(=O)N/N=C/c2cccs2)c2ccc(C)cc2)cc1OC | -23.6
O=C(CN1CCN(S(=O)(=O)c2ccc(Cl)s2)CC1)N1CCCCC1 | -21.5
O=C(N/N=C/C(Br)=C/c1ccccc1)c1cccs1 | 6.77
C[C@@H]1CCC(=O)N(C[C@@H](C)CSc2ccc(Br)cc2)CC1 | -8.13
CCOc1ncccc1C(=O)N1CCN(c2ccc(C(F)(F)F)cn2)CC1 | -7.14
O=C(c1ccc2c(c1)OCCO2)N1CCCC(CNS(=O)(=O)c2cccs2)C1 (centres unmarked) | 8.14
COc1nc(C)nc2c1ccc1ccccc12 | 6.71
Cc1cc(Nc2ccc(C(C)C)cc2)n2ncnc2n1 | -40.8
COc1ccc(C2(CNC(=O)c3ccc(C)cc3)CCOCC2)cc1 | -8.18
Cc1ccc(C2=[N+]([O-])C3(CCCCC/C3=N\NC(N)=S)N(O)C2(C)C)o1 (centres unmarked) | 5.99
CCOC(=O)/C(C#N)=C/c1cn(CCC(=O)O)nc1-c1ccc(OC)cc1 | 15.4
Cc1ccc(C(C)NC(=O)c2ccc3c(c2)OCCO3)cc1C (centres unmarked) | -8.36
CCOC(=O)C1(CCc2ccccc2)CCN(Cc2ccco2)CC1 | -76.5
CCCc1nc2oc3ccccc3c(=O)c2c(=O)n1CCCOC | 0.168
CCc1ccc2ncc(C(=O)c3ccccc3)c(N3CCOCC3)c2c1 | -45.7

SMILES | hERG current change (%, negative = inhibition) at 10uM [%]
C=CCOC(=O)C1=C[C@H](C(C)(C)C)[C@@H](CCCO)[C@H](OCC)O1 | 0.0838
CCOC(=O)C1CCN(C(=O)c2ccc3c(c2)NC(=O)/C(=C\c2ccc(C)cc2)S3)CC1 | 9.36
CCN(CCn1cccn1)C(=O)c1cc(COc2cc(C)ccc2C)on1 | -13.7
CC1CCCN(C(=O)COc2ccc(NC(=O)c3cccs3)cc2)C1 (centres unmarked) | 2.95
COC(=O)c1ccccc1NC(=O)c1cc(OC)cc(OC)c1 | -2.7
CC(=O)c1nnn(-c2cccc([N+](=O)[O-])c2)c1C | 14.6
O=C(c1ccccc1)N(Cc1cccs1)C1CCS(=O)(=O)C1 (centres unmarked) | 12
Cc1ccc(OCc2ccc(C(=O)Nc3nccs3)o2)cc1 | 3.74
O=C1NC(=O)C2(Cc3ccccc3N3CCCC32)C(=O)N1c1ccccc1 (centres unmarked) | 14
O=C(COC(=O)COc1ccccc1F)Nc1ccc(Cl)cn1 | 7.81
COCCn1c(SCC(=O)N2CCOCC2)nnc1-c1ccco1 | 28.1
C=CCN(CC=C)CCOc1ccc(OC(C)C)cc1.O=C(O)C(=O)O | -47.5
O=C(N/N=C(\c1ccccc1)c1cccnc1)c1cc(O)ccc1O | 16.4
Cc1cccc(C(=O)OCC(=O)NCc2ccco2)c1 | 14.9
Cc1nc(Nc2cc(F)ccc2C)c2nnn(Cc3ccccc3)c2n1 | -16.9
CCN(CC)S(=O)(=O)c1ccc(Cl)c(C(=O)Nc2cc(C)nn2-c2ccccc2C(F)(F)F)c1 | -23.1
C=CCNC(=O)/C=C/c1c(F)cccc1Cl | -0.397
Cc1nn(CC(=O)Nc2ccccc2)c(=O)c2ccccc12 | 1.81
Cc1ccc(-n2nnnc2Sc2nc([N+](=O)[O-])nn2C)cc1C | -6.19
O=C(CN(Cc1ccccc1)S(=O)(=O)c1ccc(S(=O)(=O)N2CCOCC2)cc1)Nc1ccccc1 | -8.64
CC(NC(=O)c1ccc2ccccc2n1)c1ccc(Br)cc1 (centres unmarked) | 13.2
COc1ccc(CCNC(=O)C(=O)NCC2OCCN2S(=O)(=O)c2ccc3c(c2)OCCO3)cc1OC (centres unmarked) | 1.79

SMILES | hERG current change (%, negative = inhibition) at 10uM [%]
CC(=O)N1CCOc2ccc(S(=O)(=O)Nc3cccc(C)n3)cc21 | 11.2
COc1ccc(OC)c(S(=O)(=O)N2CCN(CC(O)CN3CCOCC3)CC2)c1 (centres unmarked) | -5.05
O=C(NC1CSC/C1=N\O)c1ccccc1 (centres unmarked) | 12.4
CCCn1c2ccccc2c2cnn(CC(=O)NCCCN3CCN(c4ccccc4)CC3)c(=O)c21 | -74.2
Cc1ccccc1Cn1nc(C)c(NC(=O)c2noc3c2CCCC3)c1C | 6.24
COc1ccc(OC)c(-n2c(SCC(=O)N3CCc4ccccc43)nc3c(c2=O)SCC3)c1 | 0.299
Cc1nn(Cc2ccccc2)c2c1C(c1ccccc1)C(C#N)=C(N)O2 (centres unmarked) | 9.87
O=C(COc1cccnc1[N+](=O)[O-])NCCc1ccccc1 | 1.46
COc1ccc(C(=O)NCCNc2nc3ccc(C)cc3cc2C#N)cc1 | 4.99
C=CCn1c(CCC(=O)Nc2ccc(C)c(Cl)c2)nnc1SCC(=O)Nc1ccccc1C | -5.38
CCOc1ccc(Cl)cc1S(=O)(=O)n1nnc2ccccc21 | -1.05
CCOc1ccc(C2(C)NC(=O)N(CCN(C)C)C2=O)cc1 (centres unmarked) | 8.75
COC(=O)c1ccccc1Sc1c(/C=N/OC(=O)c2ccccc2)c(C(F)(F)F)nn1C | 15.4
O=C(NCc1ccco1)c1ccccc1NC(=O)C1CC(=O)N(c2ccc(Cl)cc2)C1 (centres unmarked) | -78.4
Cc1cccc(Nc2nnc(SCC(=O)NC(=O)Nc3ccc4c(c3)OCCO4)s2)c1 | -19.9
COc1ccc(C(=O)OCc2nc(N)nc(Nc3ccccc3C)n2)cc1OC | 12.8
Cc1ccc(NC(=O)COC(=O)Cn2c(C)csc2=O)cc1C | 2.05
C1CCC(c2nn3c(-c4n[nH]c5c4CCC5)nnc3s2)CC1 | -26.7
CCN(CC(=O)Nc1c(F)cccc1F)C(=O)c1ccc(-n2cncn2)c([N+](=O)[O-])c1 | -1.72
CC(O)[C@H]1CC[C@H]2[C@@H]3CC[C@H]4C[C@@H](O)CC[C@]4(C)[C@H]3/C(=N/O)C[C@]12C (some centres unmarked) | 6.36
